Source: patent US8501961B2, “HIV protease inhibitors and methods for using” (priority 2008, dated 2013)
Where two headings read alike, the source gives them in different places.

Assays:
[1] = tested on: HIV-1 MDR/MM (R5); assay: microbe, parasite or virus in culture; type: cell-based; conditions: for IC50: Human immunodeficiency virus 1, PBMC, read-out: IC50 (nM) values; for value in parentheses (fold change of IC50 vs wild-type ERS104pre): PBMC, MDR/MM (R5)
[2] = tested on: HIV-1 MDR/A (X4); assay: microbe, parasite or virus in culture; type: cell-based; conditions: for IC50: Human immunodeficiency virus 1, PBMC, read-out: IC50 (nM) values; for value in parentheses (fold change of IC50 vs wild-type ERS104pre): PBMC, MDR/A (X4)
[3] = tested on: HIV-1 MDR/JSL (R5); assay: microbe, parasite or virus in culture; type: cell-based; conditions: for IC50: Human immunodeficiency virus 1, PBMC, read-out: IC50 (nM) values; for value in parentheses (fold change of IC50 vs wild-type ERS104pre): PBMC, MDR/JSL (R5)
[4] = tested on: HIV-1ERS104pre (wild-type clinical X4 isolate); assay: Antiviral assay in PHA-PBMC, inhibition of p24Gag production; type: cell-based; conditions: for IC50: read-out: IC50 (nM) values
[5] = tested on: HIV-1 MDR/G (X4); assay: microbe, parasite or virus in culture; type: cell-based; conditions: for IC50: Human immunodeficiency virus 1, PBMC, read-out: IC50 (nM) values; for value in parentheses (fold change of IC50 vs wild-type ERS104pre): PBMC, MDR/G (X4)
[6] = tested on: HIV-1 MDR/TM; assay: microbe, parasite or virus in culture; type: cell-based; conditions: for IC50: Human immunodeficiency virus 1, PBMC, read-out: IC50 (nM) values; for value in parentheses (fold change of IC50 vs wild-type ERS104pre): PBMC, MDR/TM
[7] = tested on: HIV-1 MDR/C (X4); assay: microbe, parasite or virus in culture; type: cell-based; conditions: for IC50: Human immunodeficiency virus 1, PBMC, read-out: IC50 (nM) values; for value in parentheses (fold change of IC50 vs wild-type ERS104pre): PBMC, MDR/C (X4)
[8] = tested on: HIV-1 MDR/B; assay: microbe, parasite or virus in culture; type: cell-based; conditions: for IC50: Human immunodeficiency virus 1, PBMC, read-out: IC50 (nM) values; for value in parentheses (fold change of IC50 vs wild-type ERS104pre): PBMC, MDR/B
[9] = tested on: HIV-1-LAI; assay: Antiviral assay in MT-2 cells, inhibition of HIV-1-elicited cytopathic effect; type: cell-based; conditions: Human immunodeficiency virus 1, T-lymphoid
[10] = tested on: MT-2 cells; assay: Cytotoxicity observed in the antiretroviral assay; conditions: concentrations 1, 0.1, 0.01 and 0.001 μM
[11] = molecular target: HIV-1 protease (Human immunodeficiency virus type 1 group M subtype B (isolate HXB2) (HIV-1), UniProt P04585); assay: HIV-1 protease enzyme inhibitory assay (protocol of Toth and Marshall); type: biochemical
[12] = Human immunodeficiency virus 1, PBMC, HIV-1 ERS104pre (wild-type, X4), p24Gag production
[13] = Table 1, mean values of at least four determinations
[14] = MT-2 human T-lymphoid cells exposed to HIV-1-LAI
[15] = Human immunodeficiency virus 1, PBMC

Row | SMILES | IC50 [1] [nM] | IC50 [2] [nM] | IC50 [3] [nM] | IC50 [4, 12] [nM] | IC50 [5] [nM] | IC50 [6] [nM] | IC50 [7] [nM] | IC50 [8] [nM] | value in parentheses (fold change of IC50 vs wild-type ERS104pre) [1] | value in parentheses (fold change of IC50 vs wild-type ERS104pre) [2] | value in parentheses (fold change of IC50 vs wild-type ERS104pre) [3] | value in parentheses (fold change of IC50 vs wild-type ERS104pre) [5] | value in parentheses (fold change of IC50 vs wild-type ERS104pre) [6] | value in parentheses (fold change of IC50 vs wild-type ERS104pre) [7] | value in parentheses (fold change of IC50 vs wild-type ERS104pre) [8] | cytotoxicity [10] | Ki [11, 13] [nM] | IC50 [9, 14] [nM] | IC50 [4, 15] [nM] | other results
1 | CC(C)CN(C[C@@H](O)[C@H](Cc1ccccc1)NC(=O)O[C@H]1CCOC1)S(=O)(=O)c1ccc(N)cc1 [APV, amprenavir] | 300 | 100 | 430 | 33 | 340 | 290 | 230 | 320 |  |  |  |  |  |  |  |  |  |  |  | 
2 | CC(C)(C)NC(=O)[C@@H]1CN(Cc2cccnc2)CCN1C[C@@H](O)C[C@@H](Cc1ccccc1)C(=O)N[C@H]1c2ccccc2C[C@H]1O [IDV, Indinavir] | > 1000 | > 1000 | > 1000 | 26 | 290 | > 1000 | > 1000 | > 1000 | > 38 | > 38 | > 38 | 11 | > 38 | > 38 | > 38 |  |  |  |  | IC50 ([9]; MT-2 human T-lymphoid cells exposed to HIV-1LAI, read-out: IC50): 30 nM
3 | COc1ccc(S(=O)(=O)N(CC(C)C)C[C@@H](O)[C@H](Cc2ccccc2)NC(=O)O[C@H]2CCOCOC2)cc1 [Inhibitor 3b, (1S,2R)-{1-Benzyl-2-hydroxy-3-[isobutyl(4-methoxybenzenesulfonyl)amino]propyl}carbamic acid (1S)-3,5-Dioxacycloheptan-1-yl ester] |  |  |  |  |  |  |  |  |  |  |  |  |  |  |  | no cytotoxicity was observed |  |  |  | 
4 | COc1ccc(S(=O)(=O)N(CC(C)C)C[C@@H](O)[C@H](Cc2ccccc2)NC(=O)OC2COCOC2)cc1 [Inhibitor 3h, (1S,2R)-{1-Benzyl-2-hydroxy-3-[isobutyl(4-methoxybenzenesulfonyl)amino]propyl}carbamic acid 1,3-dioxan-5-yl ester] |  | 13 | 330 |  | 300 | 64 | 160 | 230 |  | 2 | 55 | 50 | 10 | 27 | 38 | no cytotoxicity was observed | 0.041 ± 0.002 | 3.4 | 6 | 
5 | COc1ccc(S(=O)(=O)N(CC(C)C)C[C@@H](O)[C@H](Cc2ccccc2)NC(=O)OC2COCCOCCOC2)cc1 [Inhibitor 3i, (1S,2R)-{1-Benzyl-2-hydroxy-3-[isobutyl(4-methoxybenzenesulfonyl)amino]propyl}carbamic acid 3,6,9-trioxacyclodecan-1-yl ester] |  |  |  |  |  |  |  |  |  |  |  |  |  |  |  |  | 16 ± 2.2 |  |  | 
6 | COc1ccc(S(=O)(=O)N(CC(C)C)C[C@@H](O)[C@H](Cc2ccccc2)NC(=O)OC2CC3OCO[C@@H]3C2)cc1 (stereo partly drawn) [Inhibitor 102, (1′S,2′R)-{1′-Benzyl-2′-hydroxy-3′-[isobutyl(4-methoxybenzenesulfonyl)amino]propyl} carbamic acid (1β,2β,4β)-1,2-(methylenedioxy)cyclopent-4-yl ester] | 150 | 21 | 550 |  | 340 |  | 300 |  | 5 | 1 | 19 | 12 |  | 10 |  |  |  | 3.8 | 29 | Ki ([11]; Table 3, means of at least two experiments): 0.11 to 0.12 nM; IC50 ([9]; MT-2 human T-lymphoid cells exposed to HIV-1LAI): 3.8 ± 0.1 nM; IC50 value in PBMCs greater than IC50 value in MT-2 cells, factor ([4]; PBMC (HIV-1ERS104pre) vs MT-2 (HIV-1LAI)): ~8 fold
